Experimental data reported in PubChem BioAssay AID1240 (Sanford-Burnham Center for Chemical Genomics, 2008).
In all, about 50,000 compounds went through this assay and about 800 (1.6%) showed an effect of 50% or more. The list shows a part of the results.

target: Bcl-2-like protein 10 (Homo sapiens) (UniProt Q9HD36); test: Phenotype converters, Bcl-B/TR3 peptide binding displacement, primary biochemical FP (AID 1240); details: GST-Bcl-B / FITC-TR3 peptide fluorescence polarization; stronger effect = higher value; compound at 3.75 mg/L;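 further: 0% = Bcl-B with tracer peptide and DMSO and 100% = tracer peptide lacking Bcl-B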
Chain of UniProt Q9HD36 (Q9HD36 whole entry, looked up): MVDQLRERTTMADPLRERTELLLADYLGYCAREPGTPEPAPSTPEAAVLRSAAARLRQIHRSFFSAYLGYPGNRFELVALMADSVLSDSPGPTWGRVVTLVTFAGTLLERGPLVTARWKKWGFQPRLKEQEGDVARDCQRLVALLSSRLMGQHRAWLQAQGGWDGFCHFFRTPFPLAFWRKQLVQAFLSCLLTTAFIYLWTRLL

First: COc1ccc(/C=C2/SC(=S)N(Cc3ccccc3)C2=O)c2ccccc12
Second: O=C1S/C(=C/c2ccc(Cl)cc2Cl)C(=O)N1c1ccccc1
The displacement of the first is higher: 60.2% for the first, 8.7% for the second.

Compared with `C=C(C)CSc1nnc2n(-c3ccc(OC)cc3)c(=O)c3c4c(sc3n12)COC(C)(C)C4`, `COc1ccc2c(c1)-c1c(ssc1=S)C(C)(C)N2C(=O)CSc1nnc(C)s1` is higher in displacement: 4.9% for the first, 6.1% for the second.

Going from `Cc1cccc(N2C(=O)CC(N3CCN(c4ccccc4Cl)CC3)C2=O)c1` (configuration not stated) to `CCOc1ccc(N2C(=O)CC(N3CCN(C(c4ccccc4)c4ccccc4)CC3)C2=O)cc1` (configuration not stated), the displacement falls from 13.5% to 5.8%.

Going from `COc1ccc(/C=N/n2cc(-c3ccc(Cl)cc3)nc2N)cc1` to `COc1ccc(COC(=O)NNC(=O)c2ccc(Cl)cc2)cc1`, the displacement rises from -4% to 2.1%.

Going from `C=CCN(CC=C)Cn1[nH]c(=O)ccc1=O` to `C=CCNC(=O)C(=O)N/N=C/c1cccc(Br)c1`, the displacement falls from 12.1% to 5.8%.

Compared with `O=C(/C=C/c1ccc(Cl)cc1)NCC1(c2ccccc2)CCOCC1`, `Cc1ccc(C(=O)/C=C/Nc2ccccc2)cc1` is higher in displacement: -9.1% for the first, -1.8% for the second.

First: COc1cccc(C2/C(=C(\O)c3ccc([N+](=O)[O-])cc3)C(=O)C(=O)N2CCCCCC(=O)O)c1 (configuration not stated)
Second: NC(=O)c1ccccc1NC(=O)c1ccc([N+](=O)[O-])cc1
The displacement of the first is lower: 0.2% for the first, 7.5% for the second.

First: CCOc1ccccc1C=Nc1ccc(O)cc1
Second: COc1ccc(OCC(=O)Nc2ccccc2OC)cc1
The displacement of the first is lower: -6.5% for the first, -1.1% for the second.

Going from `COc1cc(C2C3=C(CC(C)(C)CC3=O)OC3=C2C(=O)CC(C)(C)C3)ccc1OCC(=O)O` to `COc1cc(C2NC(=O)NC(C)=C2C(=O)OCCOC(C)C)ccc1OCc1ccccc1` (configuration not stated), the displacement falls from 6.5% to 3.9%.

Going from `c1cc2cc(C3=NCCN3)ccc2cc1C1=NCCN1` to `O=C(Nc1ccc(Cl)cc1)c1cc2ccccc2cc1O`, the displacement falls from 13.1% to 7%.

Compared with `Cc1ccc(C=C2C(=O)NC(=S)N(c3ccccc3Cl)C2=O)o1`, `O=C1/C(=C/c2ccc(Br)o2)SC(=S)N1c1ccccc1` is higher in displacement: 15.9% for the first, 33.2% for the second.

Compared with `Cc1c(C(=O)OC(C)C)sc(NC(=O)c2ccc(Br)o2)c1C(=O)OC(C)C`, `CCOC(=O)c1c(NC(=O)c2ccc([N+](=O)[O-])cc2)sc2c1CCCCC2` is higher in displacement: -2.8% for the first, 12.4% for the second.

Going from `CC1=C(C#N)c2nc(N)c(C#N)c(C)c2/C1=C\c1ccc(-c2ccc(C(=O)O)cc2)o1` to `COCCNC(=O)/C(=C/c1ccc(-c2cc(Cl)ccc2Cl)o1)NC(=O)c1ccc(C)cc1`, the displacement falls from 12.2% to -83%.

First: Cn1nnnc1SCC(=O)NCC(=O)c1ccccc1
Second: O=C(NCc1nc2ncc(Br)cc2[nH]1)c1ccccc1
The displacement of the first is lower: 0% for the first, 23.1% for the second.

Going from `O=C1NC(=O)/C(=C\c2cc3c(cc2[N+](=O)[O-])OCO3)S1` to `CC(=O)Oc1ccc(Br)cc1/C=C1\SC(=S)NC1=O`, the displacement falls from 6.8% to -1.3%.

Compared with `CCOC(=O)C1=C(C)NC(=O)NC1c1ccsc1` (configuration not stated), `CC1=C(C(=O)Nc2ccc(C)c(Cl)c2)C(c2cccs2)NC(=O)N1` (configuration not stated) is higher in displacement: -5.1% for the first, 3.8% for the second.

First: CC(C)c1ccc(N2C(=O)NC(=O)/C(=C/c3cccc(O)c3)C2=O)cc1
Second: COc1cc([N+](=O)[O-])cc(/C=C2\C(=O)NC(=O)N(c3ccc(Cl)cc3)C2=O)c1O
The displacement of the first is lower: -16.3% for the first, -3.8% for the second.

First: Fc1ccc(NC(=S)NCCN2CCOCC2)cc1
Second: O=C(Nc1cccnc1)N1CCOCC1
The displacement of the first is lower: -14.3% for the first, 14% for the second.

Compared with `CC(=O)C(C)Oc1cc2oc(=O)cc(-c3ccccc3)c2cc1Cl` (configuration not stated), `N#Cc1c(-c2ccc(Cl)cc2)cc(-c2ccccc2)[nH]c1=O` is lower in displacement: -4.4% for the first, -15.6% for the second.

First: O=C(NN1C(=O)/C(=C/c2ccc(Br)cc2)SC1=S)c1ccncc1
Second: O=C1/C(=C/c2ccc(F)cc2)SC(=S)N1c1ccc(Cl)cc1
The displacement of the first is lower: 3% for the first, 16.4% for the second.

Compared with `COc1cc(/C=N/n2cnnc2)cc(Cl)c1OCCOc1ccc(C(C)(C)C)cc1`, `COc1cc(/C=C2/C(=O)NC(=O)N(c3ccc(C)cc3)C2=O)ccc1OCCOc1ccc([N+](=O)[O-])cc1` is higher in displacement: -31.2% for the first, 10.8% for the second.

Going from `COC(=O)c1cc(C(=O)Nc2cc(C)ccn2)cc([N+](=O)[O-])c1` to `O=C(NC(=S)Nc1cc([N+](=O)[O-])cc(Cl)c1O)c1ccccc1`, the displacement rises from 3.9% to 11.6%.

First: CCc1c(C)sc(NC(=O)C2CC3CCC2C3)c1C#N (configuration not stated)
Second: CCOC(=O)c1c(N2C(=O)C3C4C=CC(O4)C3C2=O)sc2c1CCCC2 (configuration not stated)
The displacement of the first is higher: 12% for the first, -3.6% for the second.

Compared with `O=C(O)/C=C\C(=O)Nc1ccc(C(=O)c2ccccc2)cc1`, `CC(=O)c1ccc(NC(=O)Cc2ccc(Cl)cc2)cc1` is lower in displacement: 3.2% for the first, 0.8% for the second.

Compared with `CN1CCN(S(=O)(=O)c2ccc3ccccc3c2)CC1`, `NS(=O)(=O)c1ccc(NC(=O)c2ccc(S(=O)(=O)N3CCOCC3)cc2)cc1` is lower in displacement: -0.7% for the first, -6% for the second.

Compared with `O=C1C(=O)N(Cc2ccccc2Cl)c2ccccc21`, `O=C(O)c1ccc2c(c1)C(=O)N(c1cc(C(=O)c3ccccc3C(=O)O)ccc1Cl)C2=O` is lower in displacement: 9.3% for the first, -12.8% for the second.

Compared with `O=C(/C=C/Nc1ccc(F)cc1)c1ccc(Br)cc1`, `Cc1ccc(C(=O)N/C(=C/c2ccc(Br)cc2)C(=O)NCC(=O)O)cc1` is lower in displacement: 5.4% for the first, -4.9% for the second.

Going from `Cc1ccc2oc(C(=O)Nc3ccc(-c4nc5ccccc5o4)cc3)c(C)c2c1` to `O=C(Nc1ccc(-c2nc3ccccc3o2)c(O)c1)c1ccc(-c2cccc(Cl)c2)o1`, the displacement falls from 39.7% to 38%.

First: CSc1ccc(S(=O)(=O)N(CC(N)=O)c2ccc(C)cc2)cc1
Second: COc1ccc(N(CC(=O)NC(C)(C)C)S(=O)(=O)c2ccc(C)cc2)c(OC)c1
The displacement of the first is higher: -4.3% for the first, -5% for the second.

First: O=c1cc(-c2ccncc2)oc2ccccc12
Second: O=C(Nc1cccc(I)c1)c1cc2ccccc2oc1=O
The displacement of the first is higher: 13% for the first, 10.2% for the second.

Going from `O=C(NCC1CCCO1)c1cc2nc(-c3ccccc3)cc(-c3ccccc3)n2n1` (configuration not stated) to `CC(=O)c1ccc(Nc2nc(-c3ccccc3O)nc3ccccc23)cc1`, the displacement falls from 9.8% to -1.9%.

First: CC(C)COc1ccc(C(=O)NC(C)C2COc3ccccc3O2)cc1 (configuration not stated)
Second: COc1ccc(OC)c(NC(=O)c2ccc(N(C)S(=O)(=O)c3ccccc3)cc2)c1
The displacement of the first is lower: -3.5% for the first, 13.1% for the second.

Going from `Cc1cccc2[nH]c(SCc3ccccc3F)nc12` to `Brc1ccc2[nH]c3c(c2c1)CCCC3=NCc1ccccc1`, the displacement rises from -15% to -7.9%.

First: COC(=O)CN(c1cc(C)ccc1C)S(=O)(=O)c1ccccc1
Second: C/C(=N\NS(=O)(=O)c1ccccc1)c1ccc(I)cc1
The displacement of the first is lower: -6.3% for the first, 0.8% for the second.

Compared with `O=C(Nc1sc2c(c1C(=O)O)CCCC2)c1ccc(Cl)cc1`, `C/C(=N\NC(=O)c1ccc(Cl)cc1O)c1ccc(Cl)cc1` is higher in displacement: -1.3% for the first, 36% for the second.

Compared with `Clc1cccc(Cc2cnc(Nc3ccccn3)s2)c1Cl`, `CCC(=O)Nc1ccc(NC(=O)c2cccc(Cl)c2Cl)cc1` is higher in displacement: -3.8% for the first, 11.4% for the second.

Going from `Cc1ccc(C(=O)NCCC(C)C)cc1[N+](=O)[O-]` to `Cc1ccc(OCC(O)CNC(C)C)cc1C` (configuration not stated), the displacement falls from 11.1% to -6%.

Going from `Cc1ccc(N2CCN(C3=NC(=O)/C(=C/c4ccc(Cl)cc4)S3)CC2)cc1` to `COc1ccccc1N1CCN(C(=O)/C=C/c2ccc(C)cc2)CC1`, the displacement rises from -2.4% to 2.1%.

Compared with `c1ccc(C(c2ccccc2)N2CCN(c3ccc4ccccc4n3)CC2)cc1`, `CC(CNC(c1ccccc1)c1ccccc1)(NS(=O)(=O)c1ccccc1)c1ccccc1` (configuration not stated) is lower in displacement: 2.2% for the first, -1.3% for the second.

Going from `Cc1cccc(C2(c3cccc(C)c3)CC2C(=O)Nc2ccccc2Cl)c1` (configuration not stated) to `Cc1ccc(NC(=O)C2CC(=O)N(c3ccc(Br)cc3)C2)c(C)c1` (configuration not stated), the displacement falls from 19.1% to -7.4%.

Compared with `S=C(NCc1ccco1)Nc1cccc(Cl)c1`, `O=C(NCc1ccco1)C1CC(=O)N(c2ccc(Br)cc2)C1` (configuration not stated) is higher in displacement: -8.2% for the first, -1% for the second.

Going from `O=C(O)c1cnn2c(C(F)(F)F)cc(-c3cccs3)nc12` to `Cc1ccc2oc(C(F)(F)F)cc(=O)c2c1`, the displacement rises from 5.9% to 9.9%.

Going from `Nc1ccc2oc(-c3cccc4c(Br)cccc34)nc2c1` to `N#CC(C#N)=NNc1cccc2c(S(=O)(=O)O)cccc12`, the displacement rises from 0.1% to 8.2%.

First: O=C(Nc1ccc(Oc2ccccc2)cc1)c1cccs1
Second: COC(=O)CN(C(C)=O)C(c1ccccc1)c1cc(Br)ccc1NC(=O)c1ccccc1Cl (configuration not stated)
The displacement of the first is lower: 9.4% for the first, 16.4% for the second.

Compared with `COc1ccccc1CC(=O)NC1CCCCCC1`, `N/N=C1\CCCc2c1[nH]c1ccc(C3CCCCC3)cc21` is higher in displacement: 11.9% for the first, 13.5% for the second.

Going from `CCCCCCc1nnc(NC(=O)C(C)(C)C)s1` to `Cn1ccnc1SCC(=O)Nc1ncc([N+](=O)[O-])s1`, the displacement rises from -7.9% to 7.9%.

First: Cc1c(NC2=C(Cl)C(=O)c3c(Cl)c(Cl)c(Cl)c(Cl)c32)c(=O)n(-c2ccccc2)n1C
Second: CC(C)C(C(=O)O)N1C(=O)/C(=C/c2ccccc2Cl)SC1=S (configuration not stated)
The displacement of the first is higher: 25.8% for the first, 13.8% for the second.

First: Cc1ccc(OCC2CNC(=O)O2)cc1 (configuration not stated)
Second: Cc1ccc2c(c1)C(c1ccc(Cl)cc1Cl)CC(=O)N2 (configuration not stated)
The displacement of the first is higher: 11.6% for the first, 4.3% for the second.

First: CC1(C)Cc2nc(N)c(C#N)cc2CO1
Second: CCO/N=C1/CC(c2ccccc2)Cc2onc(C)c21 (configuration not stated)
The displacement of the first is lower: -10.3% for the first, 3.7% for the second.

First: Cc1ccc(S(=O)(=O)NC(C)(C)CN2CCN(CC(C)(C)NS(=O)(=O)c3ccc(C)cc3)CC2)cc1
Second: COc1ccc(C(=O)N2CCN(C(=O)c3ccccc3OC)CC2)cc1OC
The displacement of the first is higher: 12.7% for the first, -10.4% for the second.

Going from `CSc1ccc(/C=N\NC(=O)c2cnccn2)cc1` to `O=C1NCC(c2ccccc2)C1C(=O)N/N=C\c1cc(O)c(Br)cc1Br` (configuration not stated), the displacement falls from 109% to -9.4%.

First: CCOc1cc(/C=N/N=C2\NC(=O)C(CC(=O)O)S2)ccc1O (configuration not stated)
Second: Cc1cc(Cl)ccc1OCC(=O)NCCO
The displacement of the first is lower: -32.4% for the first, 11.2% for the second.

First: COc1ccc2nc(NC(=O)COc3ccc(Cl)cc3)sc2c1
Second: O=C(Nc1cccc(Cl)c1)N(c1ccc(Cl)cc1)C1CCS(=O)(=O)C1 (configuration not stated)
The displacement of the first is higher: 14.5% for the first, -1.2% for the second.

Compared with `Cc1ccc(OCc2nc(-c3ccc(Cl)cc3Cl)no2)c(C)c1`, `CCOC(=O)c1cocc1C(=O)Nc1ccccc1C(=O)O` is higher in displacement: -5.8% for the first, 9.8% for the second.

Compared with `C#CCSc1nc2sc3c(c2c(=O)n1CC=C)CCCC3`, `Cc1nc(C)c(C(=O)/C=C(\O)C(=O)O)o1` is lower in displacement: 16.8% for the first, -21.7% for the second.

First: CCN(O)C(C)(C)/C(=N/O)c1ccccc1
Second: CCC(=O)NNC(=O)c1cc(=O)[nH]c2ccccc12
The displacement of the first is higher: 12.4% for the first, 0.5% for the second.
